The other results are listed elsewhere or left out.
Key:
Assay in all cases: glycan array binding signal (z-score within array); higher = stronger binding
Conditions in all cases: glycan notation: IUPAC condensed, linker removed
Glc(a1-2)Glc = target: Glc(a1-2)Glc
Procedure, shortened: (§1)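 From the Consortium for Functional Glycomics database, 3228 arrays were curated, keeping only those whose protein sequence was available. Binding is given as a within-array Z-score averaged across arrays sharing a protein sequence and across linkers. Negative Z-scores can be read as non-binding.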

Glc(a1-2)Glc(a1-2)Glc = target: Glc(a1-2)Glc(a1-2)Glc
Procedure, shortened: as §1

[1] = target: Glc(a1-2)Glc(a1-2)Glc(a1-2)Glc
Procedure, shortened: as §1

[2] = target: Glc(a1-2)Glc(a1-2)Glc(a1-2)Glc(a1-2)Glc
Procedure, shortened: as §1

[3] = target: Glc(a1-2)Glc(a1-2)Glc(a1-2)Glc(a1-2)Glc(a1-2)Glc
Procedure, shortened: as §1

[4] = target: Glc(a1-2)Glc(a1-2)Glc(a1-2)Glc(a1-2)Glc(a1-2)Glc(a1-2)Glc
Procedure, shortened: as §1

[5] = target: Glc(a1-2)Glc(a1-2)Glc(a1-2)Glc(a1-2)Glc(a1-2)Glc(a1-2)Glc(a1-2)Glc
Procedure, shortened: as §1

[6] = target: Glc(a1-2)Glc(a1-2)Glc(a1-2)Glc(a1-2)Glc(a1-2)Glc(a1-2)Glc(a1-2)Glc(a1-2)Glc
Procedure, shortened: as §1

Glc(a1-3)Glc = target: Glc(a1-3)Glc
Procedure, shortened: as §1

Glc(a1-3)Glc(a1-3)Glc = target: Glc(a1-3)Glc(a1-3)Glc
Procedure, shortened: as §1

[7] = target: Glc(a1-3)Glc(a1-3)Glc(a1-3)Glc
Procedure, shortened: as §1

[8] = target: Glc(a1-3)Glc(a1-3)Glc(a1-3)Glc(a1-3)Glc
Procedure, shortened: as §1

[9] = target: Glc(a1-3)Glc(a1-3)Glc(a1-3)Glc(a1-3)Glc(a1-3)Glc
Procedure, shortened: as §1

[10] = target: Glc(a1-3)Glc(a1-3)Glc(a1-3)Glc(a1-3)Glc(a1-3)Glc(a1-3)Glc
Procedure, shortened: as §1

[11] = target: Glc(a1-3)Glc(a1-3)Glc(a1-3)Glc(a1-3)Glc(a1-3)Glc(a1-3)Glc(a1-3)Glc
Procedure, shortened: as §1

[12] = target: Glc(a1-3)Glc(a1-3)Glc(a1-3)Glc(a1-3)Glc(a1-3)Glc(a1-3)Glc(a1-3)Glc(a1-3)Glc
Procedure, shortened: as §1

[13] = target: Glc(a1-3)Glc(a1-3)Glc(a1-3)Glc(a1-3)Glc(a1-3)Glc(a1-3)Glc(a1-3)Glc(a1-3)Glc(a1-3)Glc
Procedure, shortened: as §1

[14] = target: Glc(a1-3)Glc(a1-3)Glc(a1-3)Glc(a1-3)Glc(a1-3)Glc(a1-3)Glc(a1-3)Glc(a1-3)Glc(a1-3)Glc(a1-3)Glc
Procedure, shortened: as §1

[15] = target: Glc(a1-3)Glc(a1-3)Glc(a1-3)Glc(a1-3)Glc(a1-3)Glc(a1-3)Glc(a1-3)Glc(a1-3)Glc(a1-3)Glc(a1-3)Glc(a1-3)Glc
Procedure, shortened: as §1

[16] = target: Glc(a1-3)Glc(a1-3)Glc(a1-3)Glc(a1-3)Glc(a1-3)Glc(a1-3)Glc(a1-3)Glc(a1-3)Glc(a1-3)Glc(a1-3)Glc(a1-3)Glc(a1-3)Glc
Procedure, shortened: as §1

Glc(a1-4)Glc = target: Glc(a1-4)Glc
Procedure, shortened: as §1

Glc(a1-4)Glc(a1-4)Glc = target: Glc(a1-4)Glc(a1-4)Glc
Procedure, shortened: as §1

[17] = target: Glc(a1-4)Glc(a1-4)Glc(a1-4)Glc
Procedure, shortened: as §1

[18] = target: Glc(a1-4)Glc(a1-4)Glc(a1-4)Glc(a1-4)Glc
Procedure, shortened: as §1

[19] = target: Glc(a1-4)Glc(a1-4)Glc(a1-4)Glc(a1-4)Glc(a1-4)Glc
Procedure, shortened: as §1

[20] = target: Glc(a1-4)Glc(a1-4)Glc(a1-4)Glc(a1-4)Glc(a1-4)Glc(a1-4)Glc
Procedure, shortened: as §1

[21] = target: Glc(a1-4)Glc(a1-4)Glc(a1-4)Glc(a1-4)Glc(a1-4)Glc(a1-4)Glc(a1-4)Glc
Procedure, shortened: as §1

[22] = target: Glc(a1-4)Glc(a1-4)Glc(a1-4)Glc(a1-4)Glc(a1-4)Glc(a1-4)Glc(a1-4)Glc(a1-4)Glc
Procedure, shortened: as §1

[23] = target: Glc(a1-4)Glc(a1-4)Glc(a1-4)Glc(a1-4)Glc(a1-4)Glc(a1-4)Glc(a1-4)Glc(a1-4)Glc(a1-4)Glc
Procedure, shortened: as §1

[24] = target: Glc(a1-4)Glc(a1-4)Glc(a1-4)Glc(a1-4)Glc(a1-4)Glc(a1-4)Glc(a1-4)Glc(a1-4)Glc(a1-4)Glc(a1-4)Glc
Procedure, shortened: as §1

[25] = target: Glc(a1-4)Glc(a1-4)Glc(a1-4)Glc(a1-4)Glc(a1-4)Glc(a1-4)Glc(a1-4)Glc(a1-4)Glc(a1-4)Glc(a1-4)Glc(a1-4)Glc
Procedure, shortened: as §1

[26] = target: Glc(a1-4)Glc(a1-4)Glc(a1-4)Glc(a1-4)Glc(a1-4)Glc(a1-4)Glc(a1-4)Glc(a1-4)Glc(a1-4)Glc(a1-4)Glc(a1-4)Glc(a1-4)Glc
Procedure, shortened: as §1

Glc(a1-4)Glc(a1-6)Glc = target: Glc(a1-4)Glc(a1-6)Glc
Procedure, shortened: as §1

Glc(a1-6)Glc = target: Glc(a1-6)Glc
Procedure, shortened: as §1

Glc(a1-6)Glc(a1-4)Glc = target: Glc(a1-6)Glc(a1-4)Glc
Procedure, shortened: as §1

[27] = target: Glc(a1-6)Glc(a1-4)Glc(a1-4)Glc
Procedure, shortened: as §1

[28] = target: Glc(a1-6)Glc(a1-4)Glc(a1-4)Glc(a1-6)Glc(a1-4)Glc(a1-4)Glc
Procedure, shortened: as §1

Glc(a1-6)Glc(a1-6)Glc = target: Glc(a1-6)Glc(a1-6)Glc
Procedure, shortened: as §1

[29] = target: Glc(a1-6)Glc(a1-6)Glc(a1-6)Glc
Procedure, shortened: as §1

[30] = target: Glc(a1-6)Glc(a1-6)Glc(a1-6)Glc(a1-6)Glc
Procedure, shortened: as §1

[31] = target: Glc(a1-6)Glc(a1-6)Glc(a1-6)Glc(a1-6)Glc(a1-6)Glc
Procedure, shortened: as §1

[32] = target: Glc(a1-6)Glc(a1-6)Glc(a1-6)Glc(a1-6)Glc(a1-6)Glc(a1-6)Glc
Procedure, shortened: as §1

[33] = target: Glc(a1-6)Glc(a1-6)Glc(a1-6)Glc(a1-6)Glc(a1-6)Glc(a1-6)Glc(a1-6)Glc
Procedure, shortened: as §1

[34] = target: Glc(a1-6)Glc(a1-6)Glc(a1-6)Glc(a1-6)Glc(a1-6)Glc(a1-6)Glc(a1-6)Glc(a1-6)Glc
Procedure, shortened: as §1

[35] = target: Glc(a1-6)Glc(a1-6)Glc(a1-6)Glc(a1-6)Glc(a1-6)Glc(a1-6)Glc(a1-6)Glc(a1-6)Glc(a1-6)Glc
Procedure, shortened: as §1

[36] = target: Glc(a1-6)Glc(a1-6)Glc(a1-6)Glc(a1-6)Glc(a1-6)Glc(a1-6)Glc(a1-6)Glc(a1-6)Glc(a1-6)Glc(a1-6)Glc
Procedure, shortened: as §1

[37] = target: Glc(a1-6)Glc(a1-6)Glc(a1-6)Glc(a1-6)Glc(a1-6)Glc(a1-6)Glc(a1-6)Glc(a1-6)Glc(a1-6)Glc(a1-6)Glc(a1-6)Glc
Procedure, shortened: as §1

[38] = target: Glc(a1-6)Glc(a1-6)Glc(a1-6)Glc(a1-6)Glc(a1-6)Glc(a1-6)Glc(a1-6)Glc(a1-6)Glc(a1-6)Glc(a1-6)Glc(a1-6)Glc(a1-6)Glc
Procedure, shortened: as §1

Glc(b1-2)Glc = target: Glc(b1-2)Glc
Procedure, shortened: as §1

Glc(b1-2)Glc(b1-2)Glc = target: Glc(b1-2)Glc(b1-2)Glc
Procedure, shortened: as §1

[39] = target: Glc(b1-2)Glc(b1-2)Glc(b1-2)Glc
Procedure, shortened: as §1

[40] = target: Glc(b1-2)Glc(b1-2)Glc(b1-2)Glc(b1-2)Glc
Procedure, shortened: as §1

[41] = target: Glc(b1-2)Glc(b1-2)Glc(b1-2)Glc(b1-2)Glc(b1-2)Glc
Procedure, shortened: as §1

[42] = target: Glc(b1-2)Glc(b1-2)Glc(b1-2)Glc(b1-2)Glc(b1-2)Glc(b1-2)Glc
Procedure, shortened: as §1

[43] = target: Glc(b1-2)Glc(b1-2)Glc(b1-2)Glc(b1-2)Glc(b1-2)Glc(b1-2)Glc(b1-2)Glc
Procedure, shortened: as §1

[44] = target: Glc(b1-2)Glc(b1-2)Glc(b1-2)Glc(b1-2)Glc(b1-2)Glc(b1-2)Glc(b1-2)Glc(b1-2)Glc
Procedure, shortened: as §1

[45] = target: Glc(b1-2)Glc(b1-2)Glc(b1-2)Glc(b1-2)Glc(b1-2)Glc(b1-2)Glc(b1-2)Glc(b1-2)Glc(b1-2)Glc
Procedure, shortened: as §1

[46] = target: Glc(b1-2)Glc(b1-2)Glc(b1-2)Glc(b1-2)Glc(b1-2)Glc(b1-2)Glc(b1-2)Glc(b1-2)Glc(b1-2)Glc(b1-2)Glc
Procedure, shortened: as §1

Measured: glycan array binding signal (z-score)

B1: Dectin-1 (Homo sapiens), Q9BXN2 (protein)
chain: TMAIWRSNSGSNTLENGYFLSRNKENHSQPTQSSLEDSVTPTKAVKTTGVLSSPCPPNWIIYEKSCYLFSMSLNSWDGSKRQCWQLGSNLLKIDSSNELGFIVKQVSSQPDNSFWIGLSRPQTEVPWLWEDGSTFSSNLFQIRTTATQENPSPNCVWIHVSVIYDQLCSVPSYSICEKKFSM
-0.044: [22]
-0.118: [14]
-0.04: [13]
-0.046: [15]
-0.042: [16] | [21]
-0.122: [24]
0.029: Glc(a1-4)Glc(a1-4)Glc
0.026: [25]
-0.145: all other assays above
